# The list shows a part of the results. Sequences were assembled here from the parent chain. Inactive controls read about 0.05.
# B1: TEV protease; numbered along this chain (parent)
# chain: MGESLFKGPRDYNPISSSICHLTNESDGHTTSLYGIGFGPFIITNKHLFRRNNGTLVVQSLHGVFKVKDTTTLQQHLVDGRDMIIIRMPKDFPPFPQKLKFREPQREERICLVTTNFQTKSMSSMVSDTSCTFPSGDGIFWKHWIQTKDGQCGSPLVSTRDGFIVGIHSASNFTNTNNYFTSVPKNFMELLTNQEAQQWVSGWRLNADSVLWGGHKVFMVKPEEPFQPVKEATQL
# Variants of: B1
# Experiment: raw area under fraction-flipped curve 0-4 h after induction (AUC4h, not background-subtracted), DNA-recorder readout of cleavage of the substrate (dimensionless); higher = more cleavage of the substrate by the protease variant
# Details: temperature: 34 °C; time window: 0-4 h after rhamnose induction
# Description: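 In vivo DNA recorder in E. coli TOP10(DE3) ΔrhaA at 34 °C. Each TEVp single-site mutant (parent TEVp 0) is paired with a single-site variant of the 7-mer TEVs (canonical ENLYFQ|S). The substrate sits between flexible linkers in a Bxb1-sfGFP-TEVs-SsrA fusion, so cleavage stabilises Bxb1 and speeds flipping of a recombination array, read by NGS. The value is the raw area under the fraction-flipped curve over 0-4 h after rhamnose induction (AUC4h), with ≥20 reads per time point. It is not background-subtracted; inactive controls average about 0.047.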
# 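Further: Bxb1 expression induced with 0.2% (w/v) L-rhamnose at OD600 near 0.5, cultures sampled hourly, flipped fraction per protease–substrate barcode pair counted by paired-end Illumina sequencing.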
Variant,area with substrate CNLYFQS,area with substrate DNLYFQS,area with substrate INLYFQS,area with substrate KNLYFQS,area with substrate LNLYFQS,area with substrate MNLYFQS,area with substrate NNLYFQS,area with substrate PNLYFQS,area with substrate TNLYFQS,area with substrate WNLYFQS,area with substrate FNLYFQS,area with substrate GNLYFQS,area with substrate HNLYFQS,area with substrate RNLYFQS,area with substrate SNLYFQS,area with substrate QNLYFQS,area with substrate YNLYFQS,area with substrate VNLYFQS
N45P,0.0815,0.0639,0.0641,0.0602,0.0544,0.0723,0.0594,0.0564,0.0563,0.0619,,,,,,,,
G63T,0.0978,0.0674,0.0649,0.0737,0.0594,,,0.0521,0.0636,0.0591,0.0589,0.0767,0.0478,0.0658,0.0635,,,
G63R,0.0584,0.0701,0.0729,0.0635,0.0598,,0.0571,,,0.0585,0.0486,,0.0648,0.0658,0.0668,0.0597,0.0561,
E3C,0.0728,0.09,0.0689,0.0692,,,,,0.0657,,0.0444,,0.0774,,0.0665,0.0847,,
E3F,0.0911,0.1,0.0651,,0.0711,,,0.0752,0.0566,0.0733,,,0.053,,0.0739,,,
G162L,0.0421,0.081,0.0553,,0.053,0.0507,0.0584,0.0644,0.0616,0.0566,0.0644,0.067,0.0465,,,0.0687,0.0551,
G162D,0.0675,0.0838,,,,0.0617,0.0491,0.0653,0.0617,0.063,0.0663,0.0654,,,,,,0.0721
S171C,0.0735,0.0441,,,,0.0465,0.0364,0.0633,0.0548,0.0586,,0.0328,,0.0669,0.0388,0.062,0.0652,
Q75E,0.0576,0.0619,0.0596,0.0603,0.0641,0.0604,0.0485,0.0634,0.0564,,0.0653,,0.0571,0.0612,,,0.0601,0.0659
G54C,0.05,0.0607,,0.0621,,,0.0705,0.0583,0.0659,0.0605,,0.0392,0.0796,,0.0828,0.0312,0.055,0.0696
F95A,0.0592,0.009,0.0668,,0.0695,,0.0677,0.072,,,0.0602,,0.0596,,0.0111,,0.0496,
P134W,0.049,0.0414,0.0659,,0.0464,,,0.0332,0.0595,0.0501,,,0.0297,0.0447,0.0477,,0.0417,
P134Q,0.0483,0.0856,,,0.0556,,,0.0408,,0.0664,,,,,0.0635,,,
T174K,0.0659,0.0733,,0.0796,,,,0.0517,,0.0594,,,0.06,,,,,
G166W,0.0478,0.0551,0.0515,,,0.0462,0.041,0.0372,0.0509,,,,0.0443,,0.0615,,,0.0545
N52Q,0.0359,0.0606,0.0326,0.0606,0.0565,0.0611,,0.053,0.0671,0.0587,0.0543,0.0538,0.0647,0.0662,0.0642,,,0.0686

# From the supplement of paper PMC12217912
